This is an account of results in PubChem BioAssay AID1963576 (National Center for Advancing Translational Sciences (NCATS), 2024).

The whole screen tested about 46,000 compounds, of which about 60 (0.1%) were called active. Not shown: some 3% with an inconclusive outcome. Calls follow the shape of the dose curve; as a rule, active = well fitted inhibition curve with a large enough effect; inconclusive = small, poorly fitted or top-dose-only effect; inactive = no such curve, though single readings can be large or run the other way. The list shows a part of the results.

This test is described as follows: Primary qHTS assay for Inhibitors of ovarian cancer metastasis using an organotypic tumor microenvironment (TME) model. Also: nearly all actives have a fitted effect of over 65% in size.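 As to activity change, negative = inhibition: plate controls were DMSO wells for no effect and tomatine positive control wells for full effect.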 To be noted: SKOV3ip1-GFP adhesion/invasion on 3D omental model, fluorescence; series mostly up to 45.8 µM; activity change, negative = inhibition: at the top concentration. In short, it runs like this:
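A 3D layer of primary human omental fibroblasts, mesothelial cells, fibronectin and collagen I, grown 48 hr, received SKOV3ip1-GFP cells in serum-free medium plus compounds at 0.36-46 umol/L. After 2 hr RT and 16 hr 37 C, fixed adherent GFP cells were counted; normalized to DMSO and tomatine.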
Consider `COc1ccc(OC)c(NS(=O)(=O)c2ccc3c(c2)CCCN3C(=O)C2CCC2)c1`, for which the “activity change, negative = inhibition” value was inactive: 0.475%.

`O=C(Nc1ccc(F)cc1F)c1cc(CN2CCOCC2)on1`: the “activity change, negative = inhibition” value was inactive: 16.7%.

Take `CCc1cc(=O)oc2c(C)c3c(cc12)CN(CCc1ccccc1)CO3`: the call was inactive.

On to `COc1ccc(CNC(=O)C2=Cc3cccc(OC)c3OC2)cc1OC`, for which the “activity change, negative = inhibition” value was inactive: 0.672%.

Turning to `COc1ccc(CNC(=O)Cn2c(=O)n3nc(-c4cccc(F)c4)nc3c3ccccc32)cc1OC`, the result was inactive.

Take `CCc1nn(CC(=O)NCCN(CC(C)C)CC(C)C)c(=O)c2cc3sc(C)cc3n12`: the “activity change, negative = inhibition” value is inactive: 16.4%.

`Cc1cccc(NC(=O)C(Cc2ccccc2)N2Cc3ccccc3C2=O)c1C` (stereo not drawn): the “activity change, negative = inhibition” value was inactive: -6.04%.

For `CCc1ccc(NC(=O)c2ccc(F)c(S(=O)(=O)N3CCc4ccccc4C3)c2)cc1`, the “activity change, negative = inhibition” value is inactive: 9.77%.

On to `COc1cc(Br)c(C2CC(=O)Nc3cc4c(cc32)OCCO4)cc1OC` (stereo not drawn), for which the “activity change, negative = inhibition” value is inactive: -6.77%.

For the molecule `Cc1ccc(S(=O)(=O)Nc2ccc3c(c2)CCCN3C(=O)c2cccs2)cc1C`, the “activity change, negative = inhibition” value was inactive: 0.984%.

Take `COc1cccc(C(c2sc3nc(-c4ccco4)nn3c2O)N2CCC3(CC2)OCCO3)c1` (stereo not drawn): the “activity change, negative = inhibition” value was inactive: -3.93%.

`CCS(=O)(=O)N1CCc2cc(C(=O)Nc3cccc(NC(C)=O)c3)ccc21`: the outcome was inactive.

On to `COc1ccc(-c2ccc(=O)n(CC(=O)Nc3ccccc3C(F)(F)F)n2)cc1`, for which the “activity change, negative = inhibition” value was inactive: 3.55%.

As to `O=C(Nc1c(C(=O)N2CCN(c3ccccc3F)CC2)oc2ccccc12)c1ccc(Br)o1`, the molecule was called inactive.

`Oc1ccccc1-c1nc2ccc(Cl)cn2c1Nc1ccc2c(c1)OCCO2`: the outcome was inactive.

For the molecule `COc1ccc(-c2nc(CSc3nnc(C)n4c3cc3sccc34)c(C)o2)cc1`, the “activity change, negative = inhibition” value was inactive: -11.5%.

For `Cc1ccc(C2c3[nH]c4ccccc4c3CCN2C(=O)CSc2ccccc2)cc1` (stereo not drawn), the “activity change, negative = inhibition” value is inactive: -5.2%.

Turning to `CSc1cccc(NC(=O)C2CCCN(S(=O)(=O)c3ccc4c(c3)CCCN4C(C)=O)C2)c1` (stereo not drawn), the “activity change, negative = inhibition” value is inactive: 1.3%.

Regarding `c1coc(CNc2ncnc3nc[nH]c23)c1`, the “activity change, negative = inhibition” value is inactive: 4.94%.

`CCc1nn2c(=O)cc(COC(=O)c3ccccc3NC(=O)c3ccc(C(C)(C)C)cc3)nc2s1`: the “activity change, negative = inhibition” value was inactive: 12%.

For the molecule `Cc1ccccc1OCC(=O)Nc1nnc(S(=O)(=O)N2CCCCCC2)s1`, the “activity change, negative = inhibition” value was inactive: 13.1%.

Regarding `CC(Oc1ccc(Br)cc1)C(=O)N(Cc1nc(-c2ccccc2)no1)C(C)C` (stereo not drawn), the “activity change, negative = inhibition” value is inactive: 0.741%.

`Cn1c(=O)oc2cc(S(=O)(=O)N3CCCC(C(=O)N4CCN(c5ccc(F)cc5)CC4)C3)ccc21` (stereo not drawn): the outcome was inactive.

As for `Cc1ccc(-n2c(-c3cccc(C)c3)nc3c(cnn3-c3ccccc3)c2=O)cc1`, the molecule was classed as inactive.

Consider `Cc1ccc(-c2nnc(Nc3ccc(Br)cc3)c3ccccc23)cc1S(=O)(=O)N1CCCCC1`, for which the “activity change, negative = inhibition” value was inactive: 1.41%.

Turning to `O=C(Cn1cnc2c(nc3n2CCCCC3)c1=O)Nc1ccc(F)cc1`, the “activity change, negative = inhibition” value was inactive: 2.86%.

With `CCCN(CCC)CCCNC(=O)Cn1cnc2onc(-c3ccc(F)cc3)c2c1=O`, the “activity change, negative = inhibition” value is inactive: -1.67%.

In the case of `COc1cccc(NC(=O)CSc2nc3ccc(NC(=O)c4ccco4)cc3s2)c1`, the “activity change, negative = inhibition” value was inactive: -2.34%.

Regarding `CCc1nn(CC(=O)NCCCOC)c(=O)c2cc3occc3n12`, the molecule was called inactive.

Regarding `O=C(CCCn1c(=O)[nH]c2ccccc2c1=O)NCc1ccccc1Cl`, the “activity change, negative = inhibition” value is inactive: -1.72%.

As to `Cc1cc(C)c2c(-n3cccc3)c(C(=O)NCCc3ccc(Cl)cc3)sc2n1`, the “activity change, negative = inhibition” value was inactive: 7.21%.

In the case of `CN(C(=O)c1nc(-c2cccc(F)c2)n2c1CCCCC2)c1ccccc1F`, the “activity change, negative = inhibition” value is inactive: 14.2%.

Regarding `CCC(=O)NC1CC(=O)N(c2ccc3c(c2)OCCO3)C1` (stereo not drawn), the “activity change, negative = inhibition” value was inactive: -9.67%.

Turning to `Cc1ccc2c(=O)cc(C(=O)Nc3c(C)n(C)n(-c4ccccc4)c3=O)oc2c1C`, the “activity change, negative = inhibition” value was inactive: 9.33%.

Regarding `COc1ccccc1NC(=O)Cn1c(=O)n(Cc2ccco2)c(=O)c2oc3ccccc3c21`, the “activity change, negative = inhibition” value is inactive: 3.55%.

On to `COc1cc(-c2cc(OC)c3c(C)oc(C)c3c(=O)c2)ccc1OC(=O)c1ccccc1C`, for which the “activity change, negative = inhibition” value is inactive: 2.8%.

For `COC(=O)C(C)Sc1nnc2cc(C)c3cc(C)cc(C)c3n12` (stereo not drawn), the “activity change, negative = inhibition” value was inactive: 1.02%.

For `O=C(c1ccc(F)c(F)c1Nc1ccc(I)cc1F)N1CC(O)([C@H]2CCCCN2)C1`, the “activity change, negative = inhibition” value was inactive: -15.1%.

As for `COc1cc(C2c3c(-c4ccccc4O)n[nH]c3C(=O)N2Cc2ccncc2)ccc1O` (stereo not drawn), the “activity change, negative = inhibition” value was inactive: -9.11%.

Consider `COc1c(C)c2c(c(O)c1CC=C(C)CCC(=O)OCCN1CCOCC1)C(=O)OC2`, for which the “activity change, negative = inhibition” value is inactive: -26.1%.

On to `CCCOc1ccc(NC(=O)CC2C(=O)N(c3ccccc3)C(=O)N2CCC(C)C)cc1` (stereo not drawn), for which the “activity change, negative = inhibition” value is inactive: -14.6%.

Regarding `CC(C)c1ccc(NC(=O)CCCc2nc(-c3ccc(Cl)cc3)no2)cc1`, the “activity change, negative = inhibition” value was inactive: -0.367%.

Consider `COc1cc(Cl)c(NC(=O)C2CCN(S(=O)(=O)c3c(C)noc3/C=C/c3ccccc3F)CC2)c(OC)c1`, for which the “activity change, negative = inhibition” value is inactive: -9.27%.

`Cc1nc2ccc(S(=O)(=O)CCC(=O)Nc3ccc(F)cc3C)cc2s1`: the outcome was inactive.

Consider `CCc1ccc(NC(=O)C2CCN(c3cc(C)nc4c(-c5ccc(Cl)cc5)c(C)nn34)CC2)cc1`, for which the result was inactive.

Consider `Cc1cc(OCCCSc2nc(-c3ccc(C(C)(C)C)cc3)nc3cc(=O)[nH]n23)ccc1Cl`, for which the call was inactive.

As for `CCc1ccc(NC(=O)CSc2ccc3nnc(CCNS(=O)(=O)c4ccc(OC)cc4)n3n2)cc1`, the “activity change, negative = inhibition” value was inactive: 5.91%.

Consider `COc1cccc(CNC(=O)CC(c2ccc(F)cc2)N2Cc3ccccc3C2=O)c1` (stereo not drawn), for which the “activity change, negative = inhibition” value was inactive: -3.01%.
